This note sets out measurements from PMC6438586.

Chains of the proteins cited; added tags and fusions are not shown.
UniProt P62491: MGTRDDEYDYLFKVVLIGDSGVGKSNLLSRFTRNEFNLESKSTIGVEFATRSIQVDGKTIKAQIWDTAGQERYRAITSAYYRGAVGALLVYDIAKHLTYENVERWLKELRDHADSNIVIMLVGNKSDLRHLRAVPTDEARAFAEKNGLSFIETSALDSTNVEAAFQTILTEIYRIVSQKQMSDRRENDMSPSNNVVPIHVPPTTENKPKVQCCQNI
UniProt Q8IUC6: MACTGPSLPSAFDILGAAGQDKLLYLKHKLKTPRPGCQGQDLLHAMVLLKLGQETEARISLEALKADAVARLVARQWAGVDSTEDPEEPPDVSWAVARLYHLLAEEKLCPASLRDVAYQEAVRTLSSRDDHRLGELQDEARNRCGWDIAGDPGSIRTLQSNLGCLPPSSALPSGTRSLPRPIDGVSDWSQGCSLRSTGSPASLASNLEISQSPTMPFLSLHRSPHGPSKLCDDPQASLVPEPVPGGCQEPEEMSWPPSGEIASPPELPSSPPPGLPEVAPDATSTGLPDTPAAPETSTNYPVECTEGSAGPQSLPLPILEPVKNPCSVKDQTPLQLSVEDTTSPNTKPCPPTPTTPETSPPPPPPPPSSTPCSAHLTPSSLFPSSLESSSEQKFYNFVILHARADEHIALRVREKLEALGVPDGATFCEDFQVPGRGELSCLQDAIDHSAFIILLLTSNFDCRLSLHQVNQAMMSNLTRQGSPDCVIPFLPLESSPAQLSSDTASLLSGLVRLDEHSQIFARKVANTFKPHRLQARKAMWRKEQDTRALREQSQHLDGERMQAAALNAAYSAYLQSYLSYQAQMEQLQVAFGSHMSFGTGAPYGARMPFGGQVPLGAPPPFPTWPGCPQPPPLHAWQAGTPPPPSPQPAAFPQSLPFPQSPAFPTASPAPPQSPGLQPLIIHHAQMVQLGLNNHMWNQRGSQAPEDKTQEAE

These are yes or no findings as the source states them, for the method shown. In cells and extracts the contact can be indirect. Some entries that bind do so weakly or less than the wild type.

Test [1] has as its target FLAG-FIP2 (1–512, wild type) (human) (UniProt Q7L804). Put plainly: co-IP; anti-FLAG M2 agarose, 4 h at 4 °C, lysates of HEK293T cells co-expressing FLAG-tagged and EGFP-, EYFP-, ECFP- or mCherry-tagged proteins; lysis buffer 150 mM NaCl, 50 mM TrisHCl pH 8.0, 1 mM EDTA, 1% NP-40; immunoblot; some samples treated with NS RNA or Rab11a and Rab11b siRNA. In general terms: A western blot detects proteins with antibodies after separation by electrophoresis.

The next test has as its target TRAM 1–100-FLAG (human) (UniProt Q86XR7). The description is as above.
The target in another test is TRAM 1–120-FLAG (human) (UniProt Q86XR7). The test is described as above.
A further test has as its target TRAM 1–68-FLAG (human) (UniProt Q86XR7). Described as above.
In a further test the target is TRAM 1–79-FLAG (human) (UniProt Q86XR7). The test is described as above.
The target in a further test is TRAM 1–90-FLAG (human) (UniProt Q86XR7). The description is as above.
The next test addresses TRAM-FLAG (human) (UniProt Q86XR7). The test is described as above.
Test [2] has as its target TRIF-related adaptor molecule (TRAM), endogenous (human (endogenous in THP-1 and primary human macrophages)) (UniProt Q86XR7). Description: co-IP; endogenous proteins; rabbit anti-TICAM2/TRAM (H-85) coupled to Dynabeads M-270 Epoxy, cleared lysates of THP-1 cells stimulated with E. coli bioparticles, 2 h at 4 °C; immunoblot.
Test [3] has the same target. Description: co-IP; endogenous proteins; rabbit anti-TICAM2/TRAM (H-85) coupled to Dynabeads M-270 Epoxy, cleared lysates of primary human macrophages stimulated with E. coli bioparticles, 2 h at 4 °C; immunoblot.
The target in test [4] is FLAG-FIP2 129–512 (human) (UniProt Q7L804). Description: co-IP; anti-FLAG M2 agarose, 4 h at 4 °C, lysates of HEK293T cells co-expressing FLAG-tagged and EGFP-, EYFP-, ECFP- or mCherry-tagged proteins; lysis buffer 150 mM NaCl, 50 mM TrisHCl pH 8.0, 1 mM EDTA, 1% NP-40; immunoblot; some samples treated with NS RNA or Rab11a and Rab11b siRNA.
Test [5] deals with FLAG-FIP2 193–512 (human) (UniProt Q7L804). The description is as above.
The next test addresses FLAG-FIP2 1–192 (human) (UniProt Q7L804). The test is described as above.
In another test the target is FLAG-FIP2 I481E (human) (UniProt Q7L804). The test is described as above.

CFP-Rab11a (from UniProt P62491 1-216): the binding result in [1] is reported as “binds”.

As for EGFP-FIP2 (from UniProt Q7L804 1-512), the binding result is on record as “binds” in the test with TRAM 1–100-FLAG (human); “binds” in the test with TRAM 1–120-FLAG (human); “no binding” in the test with TRAM 1–68-FLAG (human); “no binding” with TRAM 1–79-FLAG (human); “binds weakly” with TRAM 1–90-FLAG (human); “binds” with TRAM-FLAG (human).

On to “Rab11 family interacting protein 2 (FIP2), endogenous (from UniProt Q7L804 1-512)”, for which the binding result in [2] and in test [3] was “binds” each time.

Take “TIR-domain-containing adapter-inducing interferon-β (TRIF), endogenous (from UniProt Q8IUC6 1-712)”: the binding entry in [2] is recorded as “binds”.

In the case of TRAM-YFP (from UniProt Q86XR7-1 1-235), the binding entry in test [1] is recorded as “binds”; in test [4], “binds”; in test [5], “no binding”; with FLAG-FIP2 1–192 (human), “binds”; with FLAG-FIP2 I481E (human), “binds”.

For “mCherry-Rab11a (from UniProt P62491 1-216)”, the binding result with FLAG-FIP2 I481E (human) is on record as “no binding”.
